# Results published in PubChem BioAssay AID2675 (National Center for Advancing Translational Sciences (NCATS), 2010).
# The whole screen tested about 280,000 compounds, of which about 100 (0.036%) were called active. Inconclusive results, whose numbers are uncertain, are shown with a selection of clear calls. The call rests on the fitted dose curve; in most records, active means well fitted inhibition curve with a large enough effect in the signal ratio, with a control signal flat (not every such curve was filed as active); inconclusive means small, poorly fitted or top-dose-only effect, or effect the other way, or a change in a side signal; inactive means no such curve, though single readings can be large or run the other way; the % refers to the signal ratio. Potencies beside an inconclusive call are fits to weak or partial responses and may not hold up. “Side channel” marks fits to a control or component signal instead of the main read-out.
# Molecular target: Muscleblind-like protein 1 (Homo sapiens) (UniProt Q9NR56)
# Experiment: qHTS Assay for Inhibitors of MBNL1-poly(CUG) RNA binding
# Details: TR-FRET MBNL1-His/biotin-(CUG)12 binding, 665/545 ratio; activity change, negative = inhibition: at 57.5 µM (top of the series)
# Procedure, shortened: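 His-tagged MBNL1 binding to biotinylated (CUG)12 RNA was measured by TR-FRET using terbium anti-His antibody (0.055 ng/ul final) and streptavidin-XL665 (5 nM final). Compounds were titrated 92 nM to 58 uM; 60 min at room temperature.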
# On the % scale 0 is the no-effect control and ±100 the full control effect; potency means the concentration at half of the fitted maximal effect; tags describe the fitted curve by direction and shape or compound fluorescence and quenching.
# Chain of UniProt Q9NR56 (Q9NR56 whole entry, looked up): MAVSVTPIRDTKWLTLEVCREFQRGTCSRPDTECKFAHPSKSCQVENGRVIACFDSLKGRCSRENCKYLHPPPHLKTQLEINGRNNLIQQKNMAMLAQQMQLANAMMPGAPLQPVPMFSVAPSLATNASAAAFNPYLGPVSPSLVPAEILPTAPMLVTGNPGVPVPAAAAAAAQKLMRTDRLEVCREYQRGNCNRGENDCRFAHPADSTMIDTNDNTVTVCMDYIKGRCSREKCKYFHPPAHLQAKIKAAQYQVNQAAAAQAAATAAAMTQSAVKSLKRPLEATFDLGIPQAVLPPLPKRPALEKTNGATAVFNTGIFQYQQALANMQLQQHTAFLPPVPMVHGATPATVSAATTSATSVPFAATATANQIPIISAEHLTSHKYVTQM
SMILES,Potency,"activity change, negative = inhibition"
COCCNC(=O)Cc1ccc(F)cc1,"inconclusive: 5.62 µM [quencher, side channel, single point]",–
Cc1cc(C(=O)NNC(=S)NCc2ccco2)n(C)n1,–,inactive: 1.43%
COc1ccc2[nH]c(=O)c(CN(C)C(=O)COc3ccccc3)cc2c1,–,inactive: 8.05%
Cc1ccc(NS(=O)(=O)c2cc(C(=O)O)ccc2Cl)c(C)c1,–,inconclusive: -25.2% [phenotype inactive]
COc1ccc(NC(=O)/C(C#N)=C/c2ccc(Sc3nncn3C)c([N+](=O)[O-])c2)cc1,"inconclusive: 7.94 µM [quencher, side channel, partial curve]",–
COc1ccc(-c2[nH]ncc2N=Nc2ccccc2)cc1,"inconclusive: 31.6 µM [quencher, side channel, single point]",–
COC(=O)CCCC1=CC2=CC(=O)C(C)(OC(=O)c3cccs3)C(=O)C2=CN1CCCCO (stereo not given),"inconclusive: 39.8 µM [quencher, side channel, single point]",–
CCN1C(=O)c2ccc(C(=O)Nc3cccc(C(=O)O)c3)cc2C1=O,"inconclusive: 17.8 µM [quencher, side channel, partial curve]",–
COC(=O)c1ccc2c(c1O)C(=O)c1ccccc1C2=O,"inconclusive: 2 µM [quencher, side channel, full curve]",–
CCNC(=O)CN(c1ccccc1OC)S(=O)(=O)c1cccs1,–,inactive: -5.64%
Cc1cccc(N(C)C(=O)C2CCCN2S(=O)(=O)c2cccc3nsnc23)c1 (stereo not given),"inconclusive: 12.6 µM [quencher, side channel, partial curve]",–
CC(C)Nc1nc(Oc2cccc(Cl)c2Cl)cc(C(F)(F)F)n1,–,inactive: 9.48%
CS(=O)(=O)Nc1nnc(SCC(=O)Nc2cccc([N+](=O)[O-])c2)s1,"inconclusive: 12.6 µM [quencher, side channel, partial curve]",–
CN(C)/C=C1/Sc2ccccc2C1=O,"inconclusive: 17.8 µM [quencher, side channel, partial curve, poor fit]",–
CCC(=O)N1CC2(CC(c3cccc([N+](=O)[O-])c3)=NO2)C[C@H]1C(=O)NCC(N)=O (stereo not given in full),"inconclusive: 25.1 µM [quencher, side channel, partial curve]",–
C=CCn1c(SCC(=O)Nc2sccc2C(N)=O)nc2sc(C)c(C)c2c1=O,"inconclusive: 28.2 µM [quencher, side channel, partial curve]",–
O=C(C1=C[C@@H]2[C@H]3C(=O)N(c4ccc(Cl)cc4)C(=O)[C@H]3[C@@H](C(=O)c3ccc(Cl)cc3)N2C=C1)c1ccccc1,"inconclusive: 8.91 µM [quencher, side channel, full curve]",–
COC(=O)c1cc(-c2ccccc2)n[nH]1,"inconclusive: 5.01 µM [quencher, side channel, full curve, poor fit]",–
CCN1CC=C2C(C#N)=C(N)C(C#N)(C#N)C(c3cc(Cl)ccc3Cl)C2C1 (stereo not given),"inconclusive: 31.6 µM [quencher, side channel, partial curve]",–
C=CCNC(=O)c1ccc2c3n(nc2c1)-c1ccc(C)cc1CO3,"inconclusive: 15.8 µM [quencher, side channel, partial curve]",–

SMILES,Potency,"activity change, negative = inhibition"
CCN1C(=O)c2cccc3c(N)ccc1c23,"inconclusive: 15.8 µM [quencher, side channel, partial curve]",–
CC1CCCN(C(=O)CN(C)S(=O)(=O)c2cccc3nsnc23)C1 (stereo not given),"inconclusive: 15.8 µM [quencher, partial curve]",–
COc1ccc(-c2noc(CCC(=O)Nc3cccnc3)n2)cc1,–,inactive: -8.68%
COc1cc(CC(=O)N/N=C/c2ccc([N+](=O)[O-])cc2)c([N+](=O)[O-])cc1OC,"inconclusive: 15.8 µM [quencher, side channel, partial curve]",–
C[C@H](N=C1NS(=O)(=O)c2ccccc21)C(=O)OCc1cc([N+](=O)[O-])cc2c1OCOC2,"inconclusive: 28.2 µM [quencher, side channel, single point]",–
Cc1ccc2cc(C(c3nnnn3CC3CCCO3)N3CCc4ccccc4C3)c(=O)[nH]c2c1 (stereo not given),"inconclusive: 12.6 µM [quencher, side channel, partial curve]",–
FC(F)(F)c1cnc(NNC(=S)Nc2ccc(Cl)cc2)c(Cl)c1,–,inactive: 17%
O=C(NCCNc1ccccc1[N+](=O)[O-])c1ccccc1F,"inconclusive: 6.31 µM [quencher, partial curve]",–
OCc1nc2ccccc2n1Cc1c(F)cccc1Cl,–,inactive: -12.9%
O=C(N/N=C\c1ccc(Cl)cc1)C1=NOC2COC3(CCN(c4ccc([N+](=O)[O-])cc4)CC3)OCC12 (stereo not given),–,inactive: 6.61%
O=C(Nc1ccccc1)c1ccc(NCC2CCCO2)c([N+](=O)[O-])c1 (stereo not given),"inconclusive: 8.91 µM [quencher, side channel, full curve]",–
COc1ccccc1OCC(=O)Nc1ccc2c(c1)C(=O)N(CC1CCCO1)C2=O (stereo not given),"inconclusive: 31.6 µM [quencher, side channel, partial curve, poor fit]",–
CC(C)(C)c1ccc(S(=O)(=O)N2CCN(CCC#N)CC2)cc1,"inconclusive: 8.91 µM [quencher, side channel, partial curve, poor fit]",–
CCOC(=O)c1c(C)nc2sc3c(=O)n(-c4ccc(C(C)=O)cc4)cnc3c2c1-c1ccc(OC)cc1,–,inactive: 7.72%
CCc1ccc(Nc2ccc(S(=O)(=O)N3CCOCC3)cc2[N+](=O)[O-])cc1,"inconclusive: 14.1 µM [quencher, side channel, partial curve]",–
NC(=O)C1CCN(C(=O)c2ccc3c(c2)S(=O)(=O)c2ccccc2C3=O)CC1,"inconclusive: 7.08 µM [quencher, side channel, partial curve]",–
Cc1ccc(C(=O)CCC(=O)Nc2ccc(Cl)c(S(=O)(=O)Nc3cccc(Cl)c3)c2)cc1,"inconclusive: 0.794 µM [quencher, side channel, single point]",–
Cc1csc(SCC(=O)Nc2nc(-c3ccccc3)cs2)n1,"inconclusive: 7.94 µM [quencher, side channel, single point]",–
NCCc1ccc(O)c(O)c1,–,inactive: -17.2%
O=C(N/N=C/c1cccc2cccnc12)c1ccccc1O,"inconclusive: 28.2 µM [quencher, side channel, single point]",–

SMILES,Potency,"activity change, negative = inhibition"
Cc1ncc(CO)c2cc(C(N)=O)c(=Nc3ccccc3)oc12,"inconclusive: 12.6 µM [quencher, side channel, partial curve]",–
CCOC(=O)CSc1nnnn1-c1cccc2ccccc12,"inconclusive: 39.8 µM [inhibitor, single point]",–
COc1ccc(N=Cc2ccc(-c3ccccc3)o2)cc1,"inconclusive: 14.1 µM [quencher, side channel, partial curve]",–
O=C(Cc1cccs1)N/N=C\c1ccc([N+](=O)[O-])s1,"inconclusive: 3.98 µM [quencher, side channel, full curve]",–
Cc1cnc(=O)[nH]c1SCC(=O)c1ccc(F)cc1,"inconclusive: 7.94 µM [quencher, side channel, partial curve]",–
O=C(NCCN1CCOCC1)c1ccc(Cl)c(Cl)c1,–,inactive: -0.727%
O=C(N/N=C/c1ccc([N+](=O)[O-])cc1)c1cccc(N2CCCC2=O)c1,"inconclusive: 2 µM [quencher, side channel, full curve]",–
CCOC(=O)c1oc2ccc(/C=N/O)c(Cl)c2c1C,–,inactive: -16%
O=C(NNC(=O)c1ccccc1[N+](=O)[O-])c1ccccn1,"inconclusive: 17.8 µM [quencher, side channel, partial curve]",–
COCCNC(=O)CN1CCN(Cc2cccc(Cl)c2)C1=O,"inconclusive: 0.891 µM [quencher, side channel, full curve, poor fit]",–
O=C(O)COc1ccc2c(c1)O/C(=C\c1ccco1)C2=O,"inconclusive: 15.8 µM [quencher, side channel, partial curve]",–
COc1cccc(-n2c(N)c(C#N)c3ccc([N+](=O)[O-])cc3c2=O)c1,"inconclusive: 2.82 µM [quencher, side channel, full curve]",–
CC(C(=O)Nc1ccc2c(c1)OCO2)c1ccc([N+](=O)[O-])cc1 (stereo not given),"inconclusive: 22.4 µM [quencher, side channel, single point]",–
O=[N+]([O-])c1nn(-c2ccc3c(c2)OCCO3)n(O)c1=NC1CCN(Cc2ccccc2)CC1,"inconclusive: 3.98 µM [quencher, side channel, partial curve]",–
O=C(NNc1nc(-c2ccccc2)cs1)c1ccc(F)cc1,–,inactive: -4.64%
CCN(CC)CCN(C(=O)c1ccc([N+](=O)[O-])cc1)c1nc2ccc(OC)cc2s1,"inconclusive: 20 µM [quencher, side channel, single point]",–
CCCCn1c(CN2CCN(c3ccccc3)CC2)nc2c1c(=O)n(C)c(=O)n2C,–,inactive: 2.44%
CN1C(=O)[C@H](Cc2ccc([N+](=O)[O-])cc2)NC1=S,"inconclusive: 0.708 µM [quencher, side channel, full curve, poor fit]",–
Cc1ccc(S(=O)(=O)N2CCOCC2)c2nsnc12,"inconclusive: 17.8 µM [quencher, side channel, partial curve]",–
CC1SC(c2ccccc2Cl)NC1=O (stereo not given),–,inactive: -4.55%
